Biological target: the molecule itself
Test: SEC-MALS; 200 µl of 200 µM protein on Superdex 200 10/300 GL; 20 mM Tris-HCl pH 8.0, 200 mM NaCl, 1 mM DTT, 1 mM EDTA; 0.5 ml/min

| Protein | stoichiometry N |
| --- | --- |
| STIM1-CIS-DelIH ([…] plus […]) (domain or fragment, STIM1, human, […] with the IH region ([…]) deleted: […] joined to […]; source: E. coli, purified following the same protocol as CC1-IH) not shown | 2 |
| STIM1-CIS ([…] of STIM1-Ccyto) (domain or fragment, STIM1, human, […] (CC1, IH and SOAR regions); source: E. coli, purified following the same protocol as CC1-IH) not shown | 2 |

Source: article PMC3777995, “The Inhibitory Helix Controls the Intramolecular Conformational Switching of the C-Terminus of STIM1” (PLoS ONE, 2013)
